According to publication PMC4336329 (PLoS ONE, 2015):
The campaign covered roughly 310,000 compounds. About 14,000 (4.5%) showed an effect of 50% or more. The effect is printed as a negative number. Some of the results follow. Where a SMILES comes first, the peptide text is derived from it.
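Also: peak tail current of the secondary pulse compared with the same well before compound.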

These molecules were tested against human ether-à-go-go-related gene (hERG) potassium channel (human, UniProt Q12809) (assay: primary screen, population patch clamp on CHO cells stably expressing hERG).
human ether-à-go-go-related gene (hERG) potassium channel, sequence (Q12809 whole entry, looked up): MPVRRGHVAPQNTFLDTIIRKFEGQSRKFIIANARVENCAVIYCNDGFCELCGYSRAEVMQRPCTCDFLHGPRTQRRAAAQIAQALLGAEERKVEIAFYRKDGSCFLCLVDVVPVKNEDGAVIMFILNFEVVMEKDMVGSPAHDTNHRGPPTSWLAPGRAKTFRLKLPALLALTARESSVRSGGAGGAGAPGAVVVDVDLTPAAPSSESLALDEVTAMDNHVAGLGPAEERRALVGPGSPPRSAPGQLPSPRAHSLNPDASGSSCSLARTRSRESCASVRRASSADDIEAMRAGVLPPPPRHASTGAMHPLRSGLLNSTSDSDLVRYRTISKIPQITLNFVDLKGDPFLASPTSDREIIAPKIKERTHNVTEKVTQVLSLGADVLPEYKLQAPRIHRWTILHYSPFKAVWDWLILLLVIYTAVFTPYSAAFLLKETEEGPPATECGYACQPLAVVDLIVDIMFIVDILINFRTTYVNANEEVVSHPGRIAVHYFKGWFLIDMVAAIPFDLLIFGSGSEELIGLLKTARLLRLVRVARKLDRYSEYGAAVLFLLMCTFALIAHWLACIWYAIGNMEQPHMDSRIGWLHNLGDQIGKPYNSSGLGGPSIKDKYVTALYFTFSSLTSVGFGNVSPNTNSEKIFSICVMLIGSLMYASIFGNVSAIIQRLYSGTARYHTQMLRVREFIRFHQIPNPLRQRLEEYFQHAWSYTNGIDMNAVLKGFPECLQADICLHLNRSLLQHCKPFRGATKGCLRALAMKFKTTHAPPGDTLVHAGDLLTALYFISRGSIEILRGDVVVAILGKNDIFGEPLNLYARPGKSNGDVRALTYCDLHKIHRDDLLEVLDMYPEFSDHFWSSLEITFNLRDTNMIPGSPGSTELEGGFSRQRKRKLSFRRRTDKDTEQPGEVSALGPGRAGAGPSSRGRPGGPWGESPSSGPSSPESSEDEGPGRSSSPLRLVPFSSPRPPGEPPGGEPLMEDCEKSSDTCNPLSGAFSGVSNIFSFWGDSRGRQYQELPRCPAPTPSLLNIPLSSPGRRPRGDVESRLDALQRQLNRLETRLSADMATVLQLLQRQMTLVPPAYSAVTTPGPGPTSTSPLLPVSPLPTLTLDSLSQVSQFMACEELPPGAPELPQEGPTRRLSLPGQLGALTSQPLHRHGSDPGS
For `CCN(CC)C(=O)c1ccc(NC(=O)COc2ccccc2F)cc1`, the “hERG current change (%, negative = inhibition) at 10uM” value was -9.29%.
In the case of `CC(=O)Nc1ccc(OS(=O)(=O)c2ccc(C(C)(C)C)cc2)cc1`, the “hERG current change (%, negative = inhibition) at 10uM” value was 14.7%.
`Cn1c(=O)c2c(nc(Sc3n[nH]c(N)n3)n2Cc2ccccc2Cl)n(C)c1=O` was tested, and the “hERG current change (%, negative = inhibition) at 10uM” value was 11.9%.
For `Cc1nc2c3ccccc3nc(NNC(=O)CCC(=O)N3CCN(c4ccccc4F)CC3)n2n1`, the “hERG current change (%, negative = inhibition) at 10uM” value was -40.3%.
With `O=C(N/N=C/C1CC=CCC1)c1ccc(O)cc1O` (centres unmarked) the “hERG current change (%, negative = inhibition) at 10uM” value was 11.8%.
`COc1ccc(C(=O)Nc2ccc(O)c3c(=O)cc(-c4cccc(Cl)c4)oc23)cc1` was tested, and the “hERG current change (%, negative = inhibition) at 10uM” value was -4.16%.
`O=C(O)CNC(=O)c1ccccc1NC(=O)c1ccco1` was tested, and the “hERG current change (%, negative = inhibition) at 10uM” value was 7.93%.
In the case of `CC(C)(C)OC(=O)NCCCC[C@H](NC(=O)c1nc[nH]c1C(=O)NCC(=O)OCc1ccccc1)C(=O)OC(C)(C)C`, the “hERG current change (%, negative = inhibition) at 10uM” value was -14.1%.
In the case of `Cc1ccc(-n2nnc(-c3ccnc4ccccc34)n2)cc1`, the “hERG current change (%, negative = inhibition) at 10uM” value was 0.34%.
For `C=CCN(CC=C)S(=O)(=O)c1ccc(NC(=S)NC(=O)c2ccc(-c3ccccc3)cc2)cc1`, the “hERG current change (%, negative = inhibition) at 10uM” value was 5.95%.
In the case of `C=CCN(C(=O)c1csnn1)C(C(=O)NC1CCCCC1)c1ccc(C)cc1` (centres unmarked), the “hERG current change (%, negative = inhibition) at 10uM” value was -6.69%.
For `Cn1nnnc1SCc1ccc(C(=O)Nc2ccc(Br)cc2)cc1`, the “hERG current change (%, negative = inhibition) at 10uM” value was 16.7%.
With `COC(=O)N/N=C(\C)c1ccc(OC(F)F)cc1` the “hERG current change (%, negative = inhibition) at 10uM” value was 9.93%.
`COCCn1c(=O)[nH]c2cc(C(=O)N3CCN(c4cccc(C(F)(F)F)c4)CC3)ccc2c1=O` was tested, and the “hERG current change (%, negative = inhibition) at 10uM” value was 7.67%.
For `CC(CCc1ccccc1)NC(=O)CCNS(=O)(=O)c1ccccc1` (centres unmarked), the “hERG current change (%, negative = inhibition) at 10uM” value was 0.271%.
`O=C(NCc1ccccc1)c1nc(-c2cccs2)no1` was tested, and the “hERG current change (%, negative = inhibition) at 10uM” value was -22.2%.
`CCn1c(=O)c([N+](=O)[O-])c(NCCCn2ccnc2)c2ccccc21` was tested, and the “hERG current change (%, negative = inhibition) at 10uM” value was 10.3%.
In the case of `COC(=O)/C=C1/SC(=NC(=O)c2ccccc2)NC1=O`, the “hERG current change (%, negative = inhibition) at 10uM” value was -13.9%.
`CCN[C@H]1CN(CCCOC)S(=O)(=O)c2sc(S(N)(=O)=O)cc21` was tested, and the “hERG current change (%, negative = inhibition) at 10uM” value was 2.51%.
For `CCOC(=O)c1cc2sccc2n1CC(=O)OC(C)C`, the “hERG current change (%, negative = inhibition) at 10uM” value was -10.9%.
`CC1=N/C(=C\c2ccc([N+](=O)[O-])cc2)C(=O)N1c1cc(Cl)ccc1C` was tested, and the “hERG current change (%, negative = inhibition) at 10uM” value was -9.14%.
With `Cc1sc2nc(COC(=O)c3cccc(OC(F)F)c3)[nH]c(=O)c2c1C` the “hERG current change (%, negative = inhibition) at 10uM” value was 0.0335%.
With `NS(=O)(=O)c1ccc(NC(=O)c2ccc(CSc3ccccc3)o2)cc1` the “hERG current change (%, negative = inhibition) at 10uM” value was -13.6%.
`Cc1ccc(C(=O)OCC(=O)N(CC(C)C)c2c(N)n(Cc3ccccc3)c(=O)[nH]c2=O)s1` was tested, and the “hERG current change (%, negative = inhibition) at 10uM” value was 14.7%.
For `Cc1nc(N)sc1C(=O)N/N=C/c1ccco1`, the “hERG current change (%, negative = inhibition) at 10uM” value was 10.7%.
For `Cc1cc(C(C)(C)C)ccc1OCCOCCN1CCCC1`, the “hERG current change (%, negative = inhibition) at 10uM” value was -44.5%.
For `CCn1ccnc1CN(C)Cc1c(C(=O)N2C[C@@H](C)O[C@@H](C)C2)nc2ccc(Cl)cn12`, the “hERG current change (%, negative = inhibition) at 10uM” value was 11.6%.
In the case of `COc1ccccc1NC(=O)NC(=O)c1ccccc1`, the “hERG current change (%, negative = inhibition) at 10uM” value was 18.5%.
For `COC(=O)C(CC(C)C)NC(=O)C(N)Cc1ccccc1.Cl` (stereo not drawn) (H-Phe-Leu-OMe; configuration not given here), the “hERG current change (%, negative = inhibition) at 10uM” value was 8.83%.
For `O=C(Cc1ccc(Cl)cc1)NC1CC1`, the “hERG current change (%, negative = inhibition) at 10uM” value was 11%.
`CC(C)(C)C1CCc2[nH]c3ccccc3c(=O)c2C1` (centres unmarked) was tested, and the “hERG current change (%, negative = inhibition) at 10uM” value was -5.82%.
With `CC(C)CN(C(=O)COC(=O)CCCc1c[nH]c2ccccc12)c1c(N)n(Cc2ccccc2)c(=O)[nH]c1=O` the “hERG current change (%, negative = inhibition) at 10uM” value was 17.2%.
`CN1CCCN(C(=O)COc2cccc(C(F)(F)F)c2)CC1` was tested, and the “hERG current change (%, negative = inhibition) at 10uM” value was -0.603%.
For `COc1ccc(CCNS(=O)(=O)c2cc3c4c(c2)CC(=O)N4CCC3)cc1`, the “hERG current change (%, negative = inhibition) at 10uM” value was -34.8%.
`CCCCOc1ccc(C(=O)N2CCC(C)CC2)cc1` was tested, and the “hERG current change (%, negative = inhibition) at 10uM” value was -9.48%.
With `COCCn1c(=NC(=O)CN2C(=O)CCC2=O)sc2cc(S(N)(=O)=O)ccc21` the “hERG current change (%, negative = inhibition) at 10uM” value was -9.48%.
For `COc1cccc(/C=C/C(=O)OCC(=O)c2c[nH]c3ccccc23)c1OC`, the “hERG current change (%, negative = inhibition) at 10uM” value was 9.29%.
`CCN(CC)S(=O)(=O)c1cccc(NC(=O)COc2ncnc3sccc23)c1` was tested, and the “hERG current change (%, negative = inhibition) at 10uM” value was -31.4%.
In the case of `Cc1cccc(NC(=O)N2C3CCCC2CC(NC(=O)C(C)(C)C)C3)c1` (centres unmarked), the “hERG current change (%, negative = inhibition) at 10uM” value was 1.47%.
With `COCCCNC(=O)Cn1cc(C(C)=O)c2ccccc21` the “hERG current change (%, negative = inhibition) at 10uM” value was 17.7%.
For `C=C(C)/C=N/NC(=S)Nc1ccc(S(=O)(=O)N2CCOCC2)cc1`, the “hERG current change (%, negative = inhibition) at 10uM” value was -13.4%.
`CCN(CCNC(=O)C1CCCN(S(=O)(=O)CC)C1)c1ccccc1` (centres unmarked) was tested, and the “hERG current change (%, negative = inhibition) at 10uM” value was -5.46%.
With `Cn1c(=O)c(=O)n(C)c2cc(S(=O)(=O)Nc3ccc(OC(F)(F)F)cc3)ccc21` the “hERG current change (%, negative = inhibition) at 10uM” value was 1.1%.
`CCCCC(=O)NC(=S)Nc1cccc(Cl)c1N1CCCCC1` was tested, and the “hERG current change (%, negative = inhibition) at 10uM” value was 3.72%.
For `CCN(CC)C(=O)CSc1nc(N)c2c3c(sc2n1)CC(C)CC3` (centres unmarked), the “hERG current change (%, negative = inhibition) at 10uM” value was -20.9%.
For `CSCc1cc(N2CCOCC2)nc(SCc2ccc(Cl)c(Cl)c2)n1`, the “hERG current change (%, negative = inhibition) at 10uM” value was 6.78%.
With `CCCc1nnc(SCC(=O)NC2CCCC2)n1CCOC` the “hERG current change (%, negative = inhibition) at 10uM” value was 7.01%.
With `Cc1cc(-c2nc(C)c(-c3nnc(SCC(=O)Nc4ccc(Cl)cc4)n3C)s2)no1` the “hERG current change (%, negative = inhibition) at 10uM” value was 2.4%.
For `CNc1ncnc2sc(-c3ccccc3)cc12`, the “hERG current change (%, negative = inhibition) at 10uM” value was -1.51%.
For `CCc1cccc2c(C(=O)C(F)(F)F)cn(CC(=O)NCC3CCCO3)c12` (centres unmarked), the “hERG current change (%, negative = inhibition) at 10uM” value was 19.3%.
`CC(C)CNS(=O)(=O)c1ccc(NC(=O)Cn2nc(-c3ccc(F)cc3)ccc2=O)cc1` was tested, and the “hERG current change (%, negative = inhibition) at 10uM” value was -3.17%.
`COc1ccccc1/C=N/n1c(C)nnc1-n1nc(C)cc1C` was tested, and the “hERG current change (%, negative = inhibition) at 10uM” value was 0.517%.
For `CCCCCCSc1ncc(C#N)c(N)n1`, the “hERG current change (%, negative = inhibition) at 10uM” value was -4.45%.
With `CC(=O)N1N=C(c2ccccc2O)CC1c1cccs1` (centres unmarked) the “hERG current change (%, negative = inhibition) at 10uM” value was -6.13%.
For `Cc1c(C(=O)N2CCOCC2)sc2ncnc(N3CCc4ccccc4C3)c12`, the “hERG current change (%, negative = inhibition) at 10uM” value was -38.8%.
`CCCCOc1ccc(C(=O)NCC(=O)N(C)CC(=O)Nc2ccc(N3CCOCC3)cc2)cc1` was tested, and the “hERG current change (%, negative = inhibition) at 10uM” value was -27.4%.
